Laboratory results: PubChem BioAssay (NCATS)
Inconclusive results, whose numbers are uncertain, are shown with a selection of clear calls. For some of these results: Where the call is inconclusive, the potency comes from a doubtful curve fit. Active and inactive are the calls of the source. Calls come from the whole dose curve; as a rule, active = well fitted curve in the direction sought with a large enough effect; inconclusive = small, poorly fitted or top-dose-only effect, or another doubt; inactive = no such curve, though single readings can be large; an effect the other way counts as inactive or inconclusive.

Assays:
[1] = system: Zika virus NS2B-NS3 protease (linked construct); assay: Primary screen NINDS Rhodamine qHTS for Zika virus inhibitors (AID 1347160); note: nearly all actives have a fitted effect of over 55% in size; note: potency is the fitted concentration of half-maximal effect
In short: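 Rhodamine110-peptide cleavage (1.5 µM substrate) by 25 nM linked NS2B-NS3 enzyme at pH 8.0 (Tris, Tween 20), after 15 min RT preincubation with compounds; 15-min fluorescence change normalized to controls and Hill-fitted.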

[2] = UWB1.289 Cancer Cell Toxicity qHTS against the NCATS CANVASS Library (AID 1347347); note: nearly all actives have a fitted effect of over 60% in size; note: potency is the fitted concentration of half-maximal effect
In short: (§1)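 Toxicity is measured over 72 h of compound exposure at 37 degrees C under 5% CO2. Each well holds 1000 cells, pre-incubated for 4 hours before dosing across an 11-point range. CellTiter-Glo luminescence gives viability.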

[3] = qHTS for Antimalaria activity screened against the NCATS CANVASS Library (AID 1347380); note: nearly all actives have a fitted effect of over 40% in size; note: potency is the fitted concentration of half-maximal effect;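 for activity change, negative = inhibition: Plasmodium falciparum strain Dd2 asexual parasites grown in red blood cells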
In short: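 Compounds are titrated over 11 concentrations onto Dd2 parasite cultures (0.3% parasitemia, 2.5% hematocrit). Growth over 72 h at 37C in low oxygen is measured as SYBR Green DNA fluorescence after lysis.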

[4] = qHTS for activators of Nrf2/ARE signaling pathway screened against the NCATS CANVASS Library (AID 1347391); note: potency is the fitted concentration of half-maximal effect; nearly all actives have a fitted effect of over 60% in size
In short: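 Beta-lactamase reporter signal, read as 460 and 530 nm emission under 405 nm excitation after 2 h CCF4 loading, reflected ARE activation in HepG2 cells treated 16 h with an 11-point series.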

[5] = OV-SAHO Cancer Cell Toxicity qHTS against the NCATS CANVASS Library (AID 1347348); details: OV-SAHO viability, CellTiter-Glo luminescence, 72 h; series mostly up to 38.3 µM; note: nearly all actives have a fitted effect of over 55% in size; note: potency is the fitted concentration of half-maximal effect
In short: as §1

[6] = Panc-1005 Cancer Cell Toxicity qHTS against the NCATS CANVASS Library (AID 1347349); note: nearly all actives have a fitted effect of over 60% in size; note: potency is the fitted concentration of half-maximal effect
In short: as §1

[7] = SW1088 Cancer Cell Toxicity qHTS against the NCATS CANVASS Library (AID 1347350); note: nearly all actives have a fitted effect of over 75% in size; note: potency is the fitted concentration of half-maximal effect
In short: as §1

[8] = A2780 Cisplatin Sensitive Ovarian Cancer Cell Toxicity qHTS against the NCATS CANVASS Library (AID 1347353); note: potency is the fitted concentration of half-maximal effect; nearly all actives have a fitted effect of over 60% in size
In short: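 Cells are plated at 750 per well and rest for 4 hours. Compounds are added across eleven concentrations, and incubated 72 hours before ATP is quantified by luminescence.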

[9] = qHTS for Hypoxia signaling pathway (HIF-1) antagonists against the NCATS CANVASS Library (AID 1347374); note: nearly all actives have a fitted effect of over 60% in size; note: potency is the fitted concentration of half-maximal effect;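 for activity change, negative = inhibition: HRE-bla ME-180 cells stimulated with cobalt chloride to stabilize HIF-1alpha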
In short: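 Antagonism scored as loss of CoCl2-driven (60 uM stock added) HRE beta-lactamase signal, read by CCF4 FRET at 460/530 nm. Compounds were tested in an 11-point series on ME-180 reporter cells for 17 hrs at 37C, with parallel CellTiter-Glo cytotoxicity.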

[10] = HEK-293 Cancer Cell Toxicity qHTS against the NCATS CANVASS Library (AID 1347355); note: nearly all actives have a fitted effect of over 65% in size
In short: (§2)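 First, 1000 cells go into each well and rest for 4 hours. Next, an 11-point dilution range is pinned in. Plates then incubate 72 hours before CellTiter-Glo addition and luminescence reading.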

[11] = qHTS for inhibitors of ER calcium dysfunction: SERCaMP assay screened against the NCATS CANVASS Library (AID 1347393); details: SH-SY5Y GLuc-SERCaMP (Gaussia luciferase released on ER calcium loss) secretion, thapsigargin, luminescence; activity change, negative = inhibition: at 76.6 µM (top of the series) unless noted; note: nearly all actives have a fitted effect of over 40% in size; note: potency is the fitted concentration of half-maximal effect;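 for activity change, negative = inhibition: lower secreted reporter signal means inhibitor of ER calcium depletion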
In short: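 qHTS in SH-SY5Y reporter cells: 16 h compound pretreatment, 4 h thapsigargin, then secreted Gaussia luciferase measured by luminescence.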

[12] = Secretion counterscreen for inhibitors of the SERCaMP assay screened against the NCATS CANVASS Library (AID 1347390); details: SH-SY5Y constitutive GLuc secretion, luminescence, 20 h; activity change, negative = inhibition: at 76.6 µM (top of the series);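 note: light from luciferase secreted into medium read as a measure of general secretion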; note: potency is the fitted concentration of half-maximal effect
In short: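 Natural products are titrated in an 11-point series up to 77 uM onto SH-SY5Y-GLuc STOP cells for 20 h. Secreted reporter activity is measured as coelenterazine-driven luminescence, with Brefeldin A on each plate.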

[13] = UWB1.289-WTBRCA1 Cancer Cell Toxicity qHTS against the NCATS CANVASS Library (AID 1347354); note: potency is the fitted concentration of half-maximal effect
In short: as §2

[14] = KB-8-5-11 Cancer Cell Toxicity qHTS against the NCATS CANVASS Library (AID 1347364); details: activity change, negative = toxicity: at 46.1 µM (top of the series); note: nearly all actives have a fitted effect of over 75% in size; note: potency is the fitted concentration of half-maximal effect
In short: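 Terse: KB-8-5-11, 500 cells/well, 72 hr, 37C/5% CO2, 11-pt titration, CellTiter-Glo readout; confirmatory runs ± 1uM tariquidar in medium.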

[15] = qHTS for Activators of p53 Stress Response Pathway screened against the NCATS CANVASS Library (AID 1347388); note: potency is the fitted concentration of half-maximal effect
In short: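 p53RE-bla HCT-116 cells (4000/well) were plated 5 h at 37C, exposed to compounds for 16 h at 37C over an 11-point concentration series, then loaded with CCF4 for 2 h at room temperature; 460/530 nm emission ratio read.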

[16] = qHTS for inhibitors of Wild type Zika virus screened against the NCATS CANVASS Library (AID 1347396); note: potency is the fitted concentration of half-maximal effect
In short: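 Luminescent CellTiter Glo read-out of virus-induced cytotoxicity, 72 h post-infection, in Vero 766 cells. Compounds were tested at 11 concentrations; uninfected, vehicle-treated wells defined 100% inhibition.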

[17] = Viability qHTS for inhibitors of the SERCaMP assay screened against the NCATS CANVASS Library (AID 1347400); note: nearly all actives have a fitted effect of over 70% in size
In short: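 Seed SH-SY5Y-GLuc SERCaMP MJH297 cells at 1000 per well, incubate 4 h, add compounds across an 11-point range, incubate 48 h at 37C, then add CellTiter-Glo and read luminescence.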

[18] = HPAF-II Cancer Cell Toxicity qHTS against the NCATS CANVASS Library (AID 1347346); note: nearly all actives have a fitted effect of over 55% in size
In short: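 First, HPAF-II cells are plated (1000 cells/well) and held 4 h at 37 degrees C. Next, compounds are pin-transferred as an 11-point series. After 72 h, CellTiter-Glo is added and luminescence measured.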

Measured: Potency
Tags give direction and shape of the fitted curve.

C[C@@]12CCC[C@@](C)(C(=O)O)[C@H]1CC[C@@]13C[C@@H](CC[C@H]12)[C@](C)(O)C3
inactive: [2] | [3]
inconclusive: [1] 55.3 µM [inhibitor, partial curve, poor fit] | [4] 20.9 µM [activator, partial curve, poor fit]

CC(=O)N[C@H](C)c1nc(/C=C/C=C/C(=O)CC2CC(=O)CC[C@]2(C)O)cs1 (stereo not given in full)
inconclusive: [1] 62.1 µM [inhibitor, partial curve, poor fit] | [8] 33.2 µM [cytotoxic, single point]
inactive: [5] | [6] | [7] | [9]

CCC(C)=C1OC(=O)[C@H](C)[C@H](O)[C@H](Cc2cccnc2)NC(=O)C(NC(=O)c2ncccc2O)C(C)OC1=O (stereo not given in full)
inconclusive: [1] 69.7 µM [inhibitor, partial curve, poor fit] | [9] 16.7 µM [inhibitor, single point] | [11] 27.2 µM [inhibitor, partial curve, poor fit]
inactive: [5] | [10]

CN1C(=O)C(=O)N2C(=C[C@]3(c4c[nH]c5ccccc45)c4ccccc4N[C@H]23)C1=O
inactive: [2] | [12]
inconclusive: [1] 55.3 µM [inhibitor, partial curve] | [3] 0.0017 µM [cytotoxic, full curve]

C/C=C(/C)c1c(Cl)c(OC)c(C)c2c1Oc1c(Cl)c(O)c(Cl)c(C)c1C(=O)O2
active: [1] 1.39 µM | [7] 13.3 µM | [9] 10.6 µM
inactive: [3] | [11] | [17]
inconclusive: [2] 4.72 µM [cytotoxic, full curve] | [5] 16.7 µM [cytotoxic, partial curve] | [6] 23.7 µM [cytotoxic, single point] | [8] 37.2 µM [cytotoxic, single point] | [13] 14.9 µM [cytotoxic, partial curve] | [14] 13.2 µM [cytotoxic, partial curve] | [15] 8.31 µM [activator, full curve] | [16] 1.04 µM [inhibitor, full curve]

C=C(C)CC[C@H](Cc1c(O)cc(O)c2c1O[C@H](c1ccc(O)cc1O)CC2=O)C(=C)C
inconclusive: [2] 29.8 µM [cytotoxic, single point] | [6] 29.8 µM [cytotoxic, partial curve, poor fit] | [8] 33.2 µM [cytotoxic, single point] | [9] 29.8 µM [inhibitor, single point] | [12] 0.0122 µM [inhibitor, full curve, poor fit] | [4] 20.9 µM [activator, partial curve]
active: [1] 19.6 µM

C=C(Cl)[C@](Cl)(CBr)CC[C@@H](Br)C(C)(C)Cl
inconclusive: [1] 55.3 µM [inhibitor, partial curve, poor fit] | [8] 33.2 µM [cytotoxic, single point] | [9] 29.8 µM [inhibitor, single point] | [3] 0.0024 µM [cytotoxic, full curve, poor fit] | [4] 5.88 µM [activator, partial curve] | [11] 30.5 µM [inhibitor, partial curve, poor fit]
active: [2] 14.9 µM | [6] 3.75 µM | [7] 2.98 µM | [13] 18.8 µM

CC1C(=O)C23CCC1C[C@@]21O[C@H]2C(C)(C)C=CC(=O)[C@@]23COC1=O (stereo not given in full)
inconclusive: [3] 0.0067 µM [cytotoxic, full curve, poor fit]
inactive: [1] | [18] | [6]

O=c1cc(-c2ccc(O)cc2)oc2cc(O)c([C@@H]3OC(CO)[C@H](O)[C@@H](O)[C@H]3O)c(O)c12 (stereo not given in full)
inactive: [18] | [5] | [13] | [10] | [14] | [17]
inconclusive: [1] 55.3 µM [inhibitor, partial curve]

C[C@@H]1O[C@@H](Oc2c(-c3ccc(O)cc3)oc3cc(O)cc(O)c3c2=O)[C@H](O)[C@H](O)[C@H]1O
inactive: [18] | [2] | [3]
active: [1] 44 µM

C[C@@]1(CCC(=O)Nc2c(O)ccc(C(=O)O)c2O)C(=O)C=C[C@]23C[C@H]4C[C@H](O[C@@]4(C)C2)C31 (stereo not given in full)
inactive: [18] | [6] | [14]
inconclusive: [1] 62.1 µM [inhibitor, partial curve] | [3] 0.265 µM [cytotoxic, full curve, poor fit]
